Read counts are not given, so values of variants with three or more changes are uncertain.
B1: LINE1-mini (parent)
chain: GGCAGAGCUCAACACAGCGUGGCAAAGUGGCUGUGGCUAGACUGCC

Variants of: B1
Experiment: self-cleavage, relative activity (ratio to wild type); higher = more cleavage; in vitro, sequencing; the parent is a self-cleaving ribozyme

Variant | self-cleavage
G36U U38A G44A | 0.05
G33C C37A A41U | 0.03
U32G U38G A39U G44A C45U | 0.04
U32C U34C G35C | 0.11
U34A G40C C46A | 0.05
C31G C37U A41C | 0.03
G35U G44U C45G | 0.09
G33U U43A G44U | 0.05
C31A U34C U43C C45U | 0.15
A39U C45A C46A | 0.12
U32G G40A C45U | 0.01
U34A G36U U38A | 0.01
G36A C37A C42G | 0
G33U C42U U43G C45U | 0
C37U U38A G44U | 0.14
C31A G35A G44A C45G | 0.01
C31U U32A G40A | 0.04
G36A C42G C45G | 0.25
C31G C42U G44C | 0.03
U34C U38G C42A | 0.04
G35A U43G G44C C46U | 0.19
G36U U38G C46G | 0.02
G36U C37U G40C | 0.01
G36U C37U G40A | 0.06

Variant | self-cleavage
A39G G40C G44U C46U | 0.07
G33C U38G A41C | 0
C31U U38C U43C | 0.03
C31U U38C U43G | 0.07
C37G G40U C45U | 0.08
C31A U38A A41U | 0.05
G35A U38A C46G | 0.12
G33A G35A A39C | 0.29
C31U A39G G40C | 0.03
C31G G33U U43A | 0.04
U34C C37A C42A | 0.1
U32A U38G U43C | 0.01
U34C C37G A41C | 0.01
G33A G35A G44C | 0.08
G35C G44C C45A | 0.05
U32G C42U C45G | 0.07
U34C C37U C45U | 0.03
C31G G33U G36C | 0.07
U32A U34A A39U | 0.03
G33A G35C G36C | 0.1
C31U U32C G36U | 0.16
G35C C37A C42A | 0.04
G35A G36U C37U | 0.04
U34A C37U C45U | 0.04

Variant | self-cleavage
C31G U32C G33A G44A | 0.03
G36C G44C C45A | 0.02
U38C A41U C45A | 0.12
U34C G36C G44U C46G | 0.01
C31G C42A C45G | 0.04
G33C U34A C42G | 0.11
U32G G35A A39G C42G | 0.05
G36A G44C C46A | 0.13
G35U C37A G40U C46A | 0.02
G33C U34G U43C | 0.03
C31G A39G G40A | 0
G36A C37G C46G | 0.05
U32C G35A G36C | 0.09
U32C G40A U43A | 0.03
C31G G35U G44C | 0.04
U32G A39C C42A | 0.04
C31U C37A A39U | 0.2
G35U G36U G40A | 0.04
U34C C37U A41G | 0.01
G33C U38G G40C C42U | 0.01
C37A A39C C46A | 0.11
U34C G36A C37U | 0.02
C31G G35U C37G | 0
G33A A39G A41U | 0.03

Variant | self-cleavage
U34G A39G U43A | 0.03
G33A A41C C46U | 0.11
G33U C42G G44U | 0.04
C31A G36U G44A | 0.18
C31U G35U C45U | 0.03
U32G A39C G44A C45U | 0
C31U G40A C45A | 0.01
C37U U38A A41U | 0
U32C G36A G44U | 0.04
C31U U34A A39C G40C | 0.05
C31A G33C G36U | 0.08
U32G U38A A41U | 0.02
U32C C37U C45U | 0.07
U32C G35A G40C | 0.02
G33A U38G G44U | 0.11
G33U A39U G40C C45G | 0.04
C31G G35U C42G C46U | 0.03
C31U G40C C46U | 0.02
U38G A41G C45A | 0
C31U G40C C42U | 0.01
G35A U38C C45U | 0.14
G36A C37A G44U | 0.04
U32G G33C A39U | 0.01
C37G A39C G40C C45U | 0.05

Variant | self-cleavage
G33U U34G C37A | 0.07
U34A C42G G44A C45U | 0.02
G35C U38C G44U | 0.09
G33U C37G U38C A39G G40C | 0.02
C31U U32G U38G U43C C46U | 0.06
U34G G36A C45A | 0.01
C31U C42A G44A | 0.09
A39C A41C C46U | 0.1
G33A A41C C45U | 0.09
C31G A39G G44A | 0
C31U U43C C46U | 0.05
G35C U43G G44C | 0.03
C31G C37G U38G C46A | 0.06
C31A U38A A41U C42G | 0.02
C31U C37A C45U | 0.03
G33C U34C U38C | 0.02
C31U G40C C45G | 0.03
U34C C45G C46G | 0.05
C31G U43C C45U | 0.03
G35U C37U G40U | 0.21
C31A G35A C42U | 0.04
C31U U32A U43A | 0.27
U32G U34A C42A | 0.03
G33U C37G C46A | 0.07

Variant | self-cleavage
G33C A41G G44C C46U | 0.06
C31U A39U C42U | 0.02
G35C C37U U38A | 0.06
A39G G44A C45A | 0.09
U34A A41U C46A | 0.04
U34A G36C G40A | 0
U38C A39C A41C C42U | 0.05
G33U A39C C45U | 0
U32G C45G C46A | 0.03
G33C G36U G40A | 0.02
U32A U38A A41G C46A | 0.04
A39U C42G C46U | 0.03
U38G A41U C42A | 0
U32C G33A G40U | 0.05
U38C G40U A41C | 0.46
U34A G44C C46U | 0.06
G33A G40U C45A | 0.01
C31G A39C G40C C42G | 0.01
C31U U32C A39G G44A | 0.02
G33C G35C G36C | 0.02
G36U C37U U38C | 0
U32G U34G G36C C45U | 0
A39G G44U C45U C46A | 0.1
C31U C37G G40U A41G | 0.02

Variant | self-cleavage
G35U C37U U38G | 0.06
U32G G35U A41U C42U | 0.05
U32C G35A C45A | 0.04
C37U U43A G44C | 0.05
U32A C37A C42G | 0.05
G33U U38C A41C U43C G44C | 0.06
C31G U38A C46G | 0.05
U32G C37A U43C | 0
G35A G36C A41U | 0.13
C31G G35C U43A | 0.03
G33C C37U A39C | 0.03
C37U U38A U43C | 0.09
C31U U43G C45U | 0.02
C37G A41C C45A | 0.03
G33C G40A C45G | 0.02
U34A G40U C45U | 0.13
G36U G40C C45G | 0.02
G33A G36C C37U | 0.28
G35C G40C C46A | 0
G35U C42U U43G C45A | 0.03
U32C G33A C42U C46A | 0.06
U32G U34A C37U | 0.04
C31G G33C C42A | 0.14

Source: the RNAGym collection of RNA variant scans (doi:10.7554/elife.90254)
